Laboratory results: patent publication US20250230125A1 (The Board of Regents of The University of Texas System, priority 2022, published 2025)

Tests used:
[1] = po; prior report; cited from earlier work
[2] = molecular target: human ether-a-go-go-related gene (hERG) potassium channel (Homo sapiens, UniProt Q12809); assay: NIMH PDSP radioligand binding displacement, HERG
Sequence of human ether-a-go-go-related gene (hERG) potassium channel (Q12809 whole entry): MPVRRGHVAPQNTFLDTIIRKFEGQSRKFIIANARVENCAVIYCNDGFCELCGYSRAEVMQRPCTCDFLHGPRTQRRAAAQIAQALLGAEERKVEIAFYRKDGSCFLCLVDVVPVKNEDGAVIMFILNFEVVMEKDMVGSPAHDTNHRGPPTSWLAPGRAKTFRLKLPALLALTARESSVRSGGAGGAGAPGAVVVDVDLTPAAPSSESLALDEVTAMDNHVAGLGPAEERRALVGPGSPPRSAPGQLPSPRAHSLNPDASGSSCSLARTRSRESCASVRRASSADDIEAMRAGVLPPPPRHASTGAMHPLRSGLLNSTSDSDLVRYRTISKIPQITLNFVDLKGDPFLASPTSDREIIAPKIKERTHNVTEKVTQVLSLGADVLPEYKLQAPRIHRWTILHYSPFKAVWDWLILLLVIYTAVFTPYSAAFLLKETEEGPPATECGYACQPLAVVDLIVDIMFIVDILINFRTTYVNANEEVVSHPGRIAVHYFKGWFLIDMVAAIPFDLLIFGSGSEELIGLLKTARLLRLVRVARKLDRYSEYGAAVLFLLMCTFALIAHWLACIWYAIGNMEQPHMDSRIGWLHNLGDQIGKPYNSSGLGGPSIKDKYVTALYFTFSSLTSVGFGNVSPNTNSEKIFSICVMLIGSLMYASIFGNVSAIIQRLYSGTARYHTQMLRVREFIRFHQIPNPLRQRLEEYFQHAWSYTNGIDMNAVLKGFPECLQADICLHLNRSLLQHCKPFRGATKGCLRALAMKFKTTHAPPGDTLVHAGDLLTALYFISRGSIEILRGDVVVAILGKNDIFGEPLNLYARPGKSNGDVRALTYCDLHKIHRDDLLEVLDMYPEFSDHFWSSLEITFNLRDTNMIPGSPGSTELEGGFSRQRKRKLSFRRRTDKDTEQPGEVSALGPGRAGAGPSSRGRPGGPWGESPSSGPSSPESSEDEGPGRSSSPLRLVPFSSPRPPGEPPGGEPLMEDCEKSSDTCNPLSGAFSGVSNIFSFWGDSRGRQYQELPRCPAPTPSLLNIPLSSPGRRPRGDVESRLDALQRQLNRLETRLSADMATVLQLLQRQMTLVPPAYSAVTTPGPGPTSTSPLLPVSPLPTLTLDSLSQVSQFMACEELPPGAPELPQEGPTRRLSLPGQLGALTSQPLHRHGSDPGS

Compound	AUC0-inf [1]	displacement of binding to hERG potassium channel (in words) [2]
CCCCCCCCCCCC1CCNC(C(=O)NCC(O)CO)C1 (centres unmarked) [Compound 2]	737 ± 56 ng·h/mL	
CCCCCCCC/C=C\CCCCCCCC(=O)NC(CO)CO [Compound 11, N-(1,3-Dihydroxypropan-2-yl)oleamide]		did not displace binding
